The RNAGym collection of RNA variant scans (doi:10.7554/elife.90254)
Read counts are not given, so values of variants with three or more changes are uncertain.

B1: LINE1-full (parent)
chain: UACGUAGGUGGUUUUCCCCUGAUAGUGCUAAGGGGGCCUGGAAGUUUGGACUGGGCAGAGCUCAACACAGCGUGGCAAAGUGGCUGUGGCUAGACUGCCUCUCUGGAUUCCUCGUCACUCAGCAGGGCAUCUCUGAGAGAAAUGCC

Variants of: B1
Experiment: self-cleavage, relative activity (ratio to wild type); higher = more cleavage; in vitro, sequencing; the parent is a self-cleaving ribozyme

Row | Variant | self-cleavage
1 | U12G A121U U132C A136G | 1.61
2 | U46C G75A A138U | 1.46
3 | U23C U62A A138U | 0.09
4 | U39A U52A U119C | 1.35
5 | U13C A30G A136G | 1.26
6 | U9C U26C U87C A124U | 0.66
7 | A24G U134C A142G | 0.84
8 | U1A U39G A65U U81A | 0.69
9 | U112A U119A A124G | 0
10 | A64G U109C A140G | 0.31
11 | G41A U81A A141G | 1.72
12 | U13C U45C U96A | 0
13 | U85C A107G U108A A142C | 0.34
14 | U12A U62C A64G A121G C146A | 0
15 | A64G U104C U109C | 0
16 | A59U U100C U134C | 1.5
17 | A43G U100C A140U | 1.25
18 | A2G U26C A57U A59G U143C | 0
19 | U9A U45C C118A A138G | 1.32
20 | U73C A124G A129G | 0.66
21 | C66U A69U A121G | 0.05
22 | A59G U87C U119C | 0
23 | G11A U85C U130C | 0.38
24 | C56U C110U A136G | 0.27

Row | Variant | self-cleavage
25 | G21A U115A U130C | 1.73
26 | A22G A69U U96C | 0.12
27 | U39C C118A C123U | 0.48
28 | U91A U109C A138G | 0.64
29 | A67G A79G U102C U108A | 0
30 | U5A U87A G89U | 0.06
31 | A2G U14C C84G A121G U134C | 0.41
32 | A57U G122A A140G | 0.35
33 | A24U A59G A129G | 0.14
34 | A22U A42G U112C | 2.27
35 | U29C U85C A107G G114A C128U A138G | 0.43
36 | A6G U47C C110U | 0.64
37 | G27A A64G A117G A141G | 0.13
38 | G48U U52A U143C | 0.49
39 | U14C U62A A124U A138U | 0.04
40 | U1A U5C U87C U119C | 0
41 | A22U A69U U81C A107U A117G | 0
42 | U12C U14C A67G A124G | 0
43 | U1A U26G U85C | 0.17
44 | U26A C71A U73A A79U | 0.03
45 | A77U A79G U134C | 1.04
46 | A43G U85C U112A A121G G135A | 0.2
47 | A57C C90A U119C | 0
48 | U39C U46G A50C U52A U73A G83A C113U | 0.58

Row | Variant | self-cleavage
49 | G34A U46C A92C | 0.15
50 | U39C G49U A140G U143C | 0.6
51 | A50G U62C A117G U119A | 0
52 | C18A U85A G105A A142G | 0.13
53 | C38U A94G C133U | 0.46
54 | A77C A78G A129G | 1.31
55 | U20A A117U A121G A138G | 1.27
56 | U14C U62C U134A | 0.05
57 | U26C A42G G83A U130C | 1.59
58 | U14C U87C A107G | 0.24
59 | U46C U102C A117G | 0.66
60 | U39C A67G C76U | 0.5
61 | U85C G89U U134G A140G | 0.02
62 | G7U U102C C128U | 0.63
63 | U13C G33A A77G | 2.22
64 | U13C U29C U47A U73A U85C U87C A92U C116A | 0.24
65 | U119C G122A A124G | 1.41
66 | U112C A124G U143C | 1.4
67 | C37U U112C U115C A138G | 2.07
68 | A22G A30G U47A | 0.89
69 | A42G A77U U96C A140G A141U | 0.09
70 | C19A A59C U109A G135C A136U A141G | 1.33
71 | U9A A24G A140G | 0.99
72 | U23C U47C A129G | 1.21

Row | Variant | self-cleavage
73 | U20A U73C U132C U143A | 2.67
74 | U12C A22G A140G | 0.68
75 | C38G G88A A121G | 0.3
76 | A77U A124G G139A | 1.26
77 | C61A U96C C113U U115C | 0.02
78 | A92C G135A A140U | 0
79 | A2U A78G U115A | 1.16
80 | U23C U87C G97A C101U A121G A142G | 0
81 | U85C G89A C128G A136U | 0.03
82 | U47A U87A U112A | 0.09
83 | A22G A50G A69G A77U C95U A107U | 0.07
84 | C3A U47C A67U | 0.11
85 | U46A A107G A141G | 1.69
86 | U20C G83A U102C | 0.81
87 | U26A C28U U134C A138G | 0
88 | C3U A30G U112A A129G A141G | 1.12
89 | A6G A77G U109C A142G | 0
90 | U39C U96C A121U | 0
91 | U73C U130C A142G | 0.71
92 | U14A U85C U100C U112C | 0.4
93 | U5C A69G A78G U112C | 0
94 | U12C A59G A121G | 0.51
95 | U119C A136G A140G | 1.69
96 | U87A A124G A140G | 0

Row | Variant | self-cleavage
97 | U20C A31C U73C | 1.7
98 | U9A A79U U112A A117G G126A | 1.78
99 | U45C U73A A94G A129G A141G | 0.42
100 | U13C A59U A64G U96A A138U | 0.11
101 | U12C U112C A124G A140G | 0.17
102 | G34U A50G A78G U130C | 1.23
103 | A30G A64U A136G | 0.75
104 | U12G U62C A121C | 0
105 | U62A U87A C113U | 0.09
106 | U1C U20C U96A U134C A138U | 0
107 | A43G C66U U91C C99U U109C A142G | 0
108 | U14C A94G A138G | 0.61
109 | A50U A69C U109A A124C | 0
110 | A31G G48A A64U U102C | 0.35
111 | U39C U47A A59G | 0.1
112 | U13C G33A U62C A78G A79G | 0
113 | U14C U23C U29C U108C | 0
114 | U26G A94G U96C U112A U119A | 0
115 | A6G U14C A121G | 0
116 | U62C C101U U119C | 0.04
117 | A69G A117U U143A | 0.54
118 | U15A U115C A138G | 0.33
119 | U45C G54A A69G A78G U112A A140G | 0.02
120 | U20A G88A U109C A129G A136G | 0.1

Row | Variant | self-cleavage
121 | U15C G53A A59G | 0.1
122 | A22G U85A U102A | 0.14
123 | G34A A65C A124U | 0.03
124 | A22G U85A U87A | 0.08
125 | U12C A136G A142G | 0.26
126 | U15C A42G A79G | 2.15
127 | G10A A57G U104C A124U | 1.51
128 | U26A G72A G75C | 0.12
129 | A22U U91C A129G | 0.84
130 | U20C U119A A140U | 1.66
131 | U45C C61U A64C | 0.07
132 | A59G A67C G127A | 0
133 | U1C U12C A107G | 0.84
134 | U14C U102A U143C | 1.3
135 | U9A U134A A140G | 0.12
136 | U13C U130A U132C A138G | 1.44
137 | U29C U47C U52A | 0.74
138 | U46C A78U G106A | 1.46
139 | U5C U13C U47C A77G A140G | 1.53
140 | U14C A129U U132C A136G | 1.84
141 | C76U A124U U143C | 1.48
142 | U39A A78G A107G | 0.66
143 | G8U U13C U14C A24G U96A G97A | 0.27
144 | U47C A94C U115A | 0.06

Row | Variant | self-cleavage
145 | U13C A79G U130A U132C | 2.63
146 | A31G G114A A117G U134C | 1.28
147 | U52C A59G A65G A69U C76U U87C U119A | 0
148 | A42G A92G U104C | 0
149 | U45C A67G C98G A140G | 0
150 | U26A C111U A142G | 1.46
151 | G48A A50G A78G A136G | 1.26
152 | U14C U96C A107G A142G | 0.18
153 | U12C U39G U62C A142G | 0.06
154 | U39C A64G G139U | 0.21
155 | U13C A42U U87A | 0.1
156 | G27A U73A U87C U115C | 0.13
157 | U62C A64U A136U A142G | 0
158 | U39C U100A U109C U134C | 0.63
159 | A64G A78G A124U | 0
160 | A31U G54A U109C A121U A142G | 0.2
161 | U39C G41A U132C A138G | 1.5
162 | U23C G86A A124G A136G | 0
163 | U73C A78G G83U U108A A129G C146A | 1.75
164 | U20G U81C G127A A129U | 0.48
165 | U52A A64G A78G A107U | 0.51
166 | U29A U115C U143A | 0.64
167 | U12A U20C G54A U119A | 0.22
